Data reported in PubChem BioAssay AID1346428 (National Center for Advancing Translational Sciences (NCATS), 2018).
Out of some 48,000 compounds screened, about 1,200 (2.5%) were called active. About 2% were inconclusive and are not listed.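 Rule for the calls: active = activation of at least 60% and not above a set upper limit (about 1 call in 100 departs from these limits); inconclusive = activation of 40% to 60%, or above that upper limit; inactive = activation under 40%.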 This is one part of the list.

What follows are molecules tested against Probable G-protein coupled receptor 32 (Homo sapiens) (UniProt O75388) (assay: qHTS for Agonists of Human Resolvin D1 Receptor DRV1). Conditions: CHO-K1 GPR32 beta-arrestin PathHunter luminescence, 90 min; at 76.9 µM; active compounds read high; zero percent set by DMSO-only wells.
Method in brief: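 Engineered CHO-K1 line co-expressing GPR32-ProLink and EA-beta-arrestin. Compound treatment lasted 90 min at 37 °C. Luminescence was recorded after 1 h with substrate at ambient temperature, relative to DMSO basal wells.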
Note: 0% is about no effect.

UniProt O75388, sequence (O75388 whole entry, looked up): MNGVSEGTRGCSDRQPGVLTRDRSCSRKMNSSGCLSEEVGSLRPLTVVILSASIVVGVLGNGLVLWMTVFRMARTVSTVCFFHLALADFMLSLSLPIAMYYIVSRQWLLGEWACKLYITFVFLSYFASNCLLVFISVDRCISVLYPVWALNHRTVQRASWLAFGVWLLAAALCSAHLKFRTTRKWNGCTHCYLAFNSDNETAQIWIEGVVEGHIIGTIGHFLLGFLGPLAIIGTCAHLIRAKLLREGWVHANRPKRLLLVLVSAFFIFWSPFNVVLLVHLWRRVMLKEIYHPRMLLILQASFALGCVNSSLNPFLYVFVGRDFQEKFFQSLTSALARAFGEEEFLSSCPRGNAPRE

Compound	activation
Cc1ccccc1C(=O)OCc1cc(=O)n2nc(C3CCCCC3)sc2n1	inactive: -3.99%
CC1CCCCN1CCCNC(=O)CN1C(=O)CSc2ccc(S(=O)(=O)N3CCOCC3)cc21 (centres undefined)	inactive: -7.6%
CCOC(=O)c1cc(-c2ccc(OC)c(S(=O)(=O)NCc3ccccc3Cl)c2)on1	inactive: -15.8%
COc1ccc(OC)c(NC(=O)Cn2ccn(-c3ccc(OC)c(OC)c3)c(=O)c2=O)c1	inactive: 7.36%
CCc1ccc(NC(=O)Nc2ccccc2OCc2cc(=O)n3ccccc3n2)cc1	inactive: -4.99%
Cn1c(=O)c2[nH]c(C3CCCC3)nc2n(C)c1=O	inactive: 2.66%
Cc1ccc(CNC(=O)Cn2c(=O)cc(C)c3c(C)nn(-c4cccc(F)c4)c32)cc1	inactive: -8.23%
Cc1ccc(C)c(N2CCN(S(=O)(=O)c3ccc(-c4cnc(C5CC5)o4)cc3)CC2)c1	inactive: 2.49%
CCOCCCNc1nc2c(S(=O)(=O)c3ccc(CC)cc3)nnn2c2ccc(Cl)cc12	inactive: -2.96%
O=C(Cn1ncc2c3ccccc3n(Cc3cccc(Cl)c3)c2c1=O)NCCCN1CCCCC1	inactive: -6.02%
COc1ccc(-c2cn3cccnc3n2)cc1NC(=O)Nc1cc(C)ccc1C	inactive: -22.7%
O=C(NCCc1ccccc1)C1CCN(Cc2cc3ccccc3n2Cc2ccccc2)CC1	inactive: -49.6%
CCOc1ccccc1CN1CCc2nc(N3CCN(C)CC3)ncc2C1	inactive: -10.7%
Cc1ccc(NC(=O)CSc2nc(-c3cccs3)nc3cc(=O)[nH]n23)cc1C	inactive: 2.37%
CN1C(C(=O)c2ccccc2)=C(NC(=O)c2ccc(F)cc2)c2ccccc2S1(=O)=O	inactive: -24.8%
CCOc1ccc(-c2cc(C(=O)NC(C)c3ccccc3)c3ccccc3n2)cc1 (centres undefined)	inactive: -18.4%
COc1ccc(COC(=O)C2=C(C)NC(=O)CC2c2cccc(Cl)c2Cl)cc1 (centres undefined)	inactive: 9.17%
O=C(Nc1ccc(C(=O)N2CCN(c3ccccc3F)CC2)cc1)c1nsc2ccccc12	inactive: -14.9%
CCOC(=O)N1CCc2c(sc3c2c(=O)n(-c2ccc(F)cc2)c(=O)n3CC(=O)c2ccc(Cl)cc2)C1	inactive: -7.1%
CC(C)C(=O)OCc1cccc(OC(=O)[C@@H]2N3C(=O)[C@@H](NC(=O)Cc4ccccc4)[C@H]3SC2(C)C)c1	inactive: -9.27%
O=C(NCCc1ccc(Cl)cc1)c1ccc2c(c1)nc1n2CCOC1	inactive: 2.56%

Compound	activation
CN(C)CCN(Cc1ccco1)C(=O)c1cc2c(s1)-c1ccccc1OC2	inactive: -14.9%
COc1ccc(-c2onc(C)c2C)cc1S(=O)(=O)Nc1cccc(C#N)c1	inactive: 1.92%
Cc1cccc(C(=O)NC2(C(F)(F)F)N=C(c3ccccc3)N(C3CCCCC3)C2=O)c1 (centres undefined)	inactive: -24.9%
COc1ccc([C@@H]2Sc3ccccc3NC(=O)[C@@H]2O)cc1	inactive: -5.13%
CCc1ccc(NS(=O)(=O)c2ccc(-c3cc(C)no3)cc2)cc1	inactive: 20.3%
CC(=O)C1=C(c2ccc(F)cc2)N(C(C)=O)n2c(nnc2C2CCCCC2)S1	inactive: -20.9%
CCOc1ccc(C(=O)NCC(c2ccc(Cl)cc2)N2CCCCC2)cc1 (centres undefined)	inactive: -12.3%
COC(=O)[C@H]1[C@H]2C[C@@H]3c4[nH]c5cc(OC)ccc5c4CCN3C[C@H]2C[C@@H](OC(=O)COc2ccc(OC)cc2)[C@@H]1OC	inactive: 22%
COC(=O)c1ccc(NC(=O)CC2C(=O)N(c3cccc(F)c3)C(=O)N2CC(C)C)cc1 (centres undefined)	inactive: 4.72%
COc1ccc(NC(=O)Cn2nnnc2-c2ccccc2F)c(C)c1	inactive: 0.281%
CCCNC(=O)C1CCC(Cn2c(=O)c3sccc3n(CC(=O)N(CC)CC)c2=O)CC1 (centres undefined)	inactive: -8.92%
CCCN(CCC)CCNC(=O)CS(=O)Cc1nc(-c2ccc(OC)c(OC)c2)oc1C (centres undefined)	inactive: -6.32%
Cc1ccc(-n2nc(C(=O)N3CCCCC3)c(=O)n(C)c2=O)cc1	inactive: -12.4%
NCC(=O)O	inactive: -6.04%
COc1ccc(CN2C(=O)N(c3cccc(C)c3)C(=O)C2CC(=O)Nc2ccc(F)cc2)cc1OC (centres undefined)	inactive: -10.3%
Cc1ccc(CNC(=O)c2cc3cc(C)ccc3n2C)cc1	inactive: 2.65%
COc1ccc(-n2c(=O)c3ccc(C(=O)NCc4ccc(C)cc4)cc3n(CC(=O)Nc3cccc(F)c3)c2=O)cc1	inactive: 18.6%
CNc1ccc(-c2nc(-c3ccccn3)no2)cc1[N+](=O)[O-]	inactive: 0.956%
CN(Cc1ccccc1)C(=O)C(=O)Nc1ccc2nc3n(c(=O)c2c1)CCCCC3	inactive: 15.8%
COc1cccc(C(=O)Nc2nc3c(s2)CCCC3)c1	inactive: -0.387%
CCOc1ccc(C2c3[nH]c4ccccc4c3CCN2C(=O)CSc2ccccc2)cc1 (centres undefined)	inactive: -31.3%

Compound	activation
COCCCNC(=O)Cn1c(=O)n(-c2ccccc2)c(=O)c2c1c1cc(OC)ccc1n2C	inactive: -19.7%
CCOC(=O)c1cc(NC(=O)c2ccc(C)cc2)c(=O)n2c1oc1ccccc12	inactive: 8.89%
CCOc1cc(CNCCSc2nnnn2C)ccc1OCc1ccc(Cl)cc1Cl	inactive: 46.7%
Cc1ccc(NC(=O)CN2C(=O)COc3ccc(S(=O)(=O)N4CCCCC4)cc32)cc1Cl	inactive: -29.9%
O=C(NCc1cccc(Cl)c1)c1cnc(N2CCCCC2)c2ccccc12	inactive: -23.1%
Cc1ccc(-c2ncc(Cl)cc2-c2ccc(S(C)(=O)=O)cc2)cn1	inactive: -18.5%
COc1ccc(CCNC(=O)Cn2c(=O)c3sccc3n(CC(=O)Nc3cccc(C(F)(F)F)c3)c2=O)cc1OC	inactive: -14.1%
Cc1ccc(-n2ncc(C(=O)NCCc3ccsc3)c2C2CCN(C(=O)OC(C)(C)C)CC2)c(C)c1	inactive: -25.9%
COC(=O)c1cccc(Nc2c(-c3ccc(SC)cc3)nc3nc[nH]n23)c1	inactive: -28.2%
CCc1ccc(C2N=C(N)Nc3nc4ccccc4n32)cc1 (centres undefined)	inactive: 48.8%
Cc1cccc(N2CCN(c3ncnc4onc(C)c34)CC2)c1C	inactive: -0.0338%
COc1ccc(Cl)cc1NC(=O)CN(c1cccc(C)c1C)S(C)(=O)=O	inactive: -1.23%
O=C(CCCCCn1c(=O)[nH]c2ccccc2c1=O)NCCc1ccccc1	inactive: -13%
Cc1cccc(S(=O)(=O)c2cn(Cc3ccc(F)cc3)c3cc(N4CCCCC4)c(F)cc3c2=O)c1	inactive: -10.1%
O=C(CSc1nc2c([nH]c3ccccc32)c(=O)n1-c1ccc(Cl)cc1)NCc1ccccc1	inactive: 17.3%
CCc1ccc(CNC(=O)CN2C(=O)CSc3ccc(S(=O)(=O)N4CCOCC4)cc32)cc1	inactive: -18.2%
COc1cccc(C(=O)N(Cc2ccc(N(C)C)cc2)Cc2ccco2)c1	inactive: -29.1%
CC1=C(C(=O)Nc2cc(Cl)ccc2C)C(c2ccccc2F)n2ncnc2N1 (centres undefined)	inactive: -5.82%
CN1CCN(C(CNC(=O)C(=O)Nc2ccccc2C#N)c2ccc3c(c2)OCO3)CC1 (centres undefined)	inactive: 9.03%
CCc1ccccc1NC(=O)c1cc(-c2ccc(OC)cc2)on1	inactive: 13.3%
CCc1ccc(S(=O)(=O)NCc2cccn2Cc2cccc(C)c2)cc1	inactive: -8.65%

Compound	activation
COc1ccc(CCNC(=O)CSc2cc(=O)n(C)c3ccccc23)cc1OC	inactive: 5.84%
CCn1c(=O)c(=O)n(CC)c2cc(N3CCCCC3)c(NC(=O)c3ccc(OC)c(OC)c3)cc21	inactive: 11.4%
COc1cc(C(=O)Nc2sc3c(c2C(N)=O)CCC(C)C3)cc(OC)c1OC (centres undefined)	inactive: 18.9%
Cc1ccc2sc(N(CCCN(C)C)C(=O)c3ccco3)nc2c1C	inactive: -13.3%
CC(C)CCCC(C)NCCC(C)C (centres undefined)	inactive: -4.44%
CCc1noc(-c2ccc(N3CCC(C)CC3)c([N+](=O)[O-])c2)n1	inactive: -20.9%
Cc1cccc(OCCn2c(SCC(N)=O)nc3ccccc32)c1	inactive: 11.3%
Cc1nn2c(=O)cc(COC(=O)c3ccc(NC(=O)CCc4ccccc4)cc3)nc2s1	inactive: -11.8%
CCC(Sc1nc2cc3c(cc2c(=O)n1CCCCCC(=O)NCc1ccc2c(c1)OCO2)OCO3)C(=O)NCCCOC (centres undefined)	inactive: -19.3%
COc1ccc(CCNC(=O)C(=O)NCC(c2ccco2)S(=O)(=O)c2cccs2)cc1 (centres undefined)	inactive: -7.97%
CC(C)C(=O)Nc1ccccc1C(=O)OCc1cc(=O)n2nc(C3CC3)sc2n1	inactive: 8.2%
Cc1c(Cl)cccc1NC(=O)c1cc(-c2cccc(Cl)c2)on1	inactive: -3.47%
COc1cc2c(C(=O)N3CCN(c4cccc(Cl)c4)CC3)cn(C)c(=O)c2cc1OC	inactive: 6.83%
O=C(CN1C(=O)c2cccnc2Oc2ccc(Cl)cc21)NCCCN1CCCCC1	inactive: -2.08%
O=C(Nc1cccc(Br)c1)Nc1nc2c(s1)CCCCCC2	active: 113%
Cc1ccn2c(c1)nc(=O)c1cc(S(=O)(=O)N3CCCCC3)ccc12	inactive: 16.7%
COc1ccc(NC(=O)c2cnc(N3CCOCC3)c3ccccc23)cc1OC	inactive: -8.69%
Cc1cccc(-c2nc3cc(NC(=O)c4ccc(OCC(C)C)cc4)ccc3o2)c1	inactive: -16.7%
CC(C)[C@@H]1CC[C@@H](C)C[C@@H]1P(=O)(c1ccccc1)c1ccccc1	inactive: -13.4%
CCOC(=O)N1CCC(NC(=O)c2cnn(-c3ccc(C)cc3)c2-n2cccc2)CC1	inactive: -15%
Cc1cccn2c(=O)c3cc(C(=O)NC(C)C)n(C)c3nc12	inactive: -6.84%
